# The supplement of paper PMC8728848
# Some of the results follow.
# B1: CPA (Cicer arietinum) (protein)
# chain: MAFSYLNLVLVTLTTLFFLQTTKVKSQKSVSFHITNFTISRPSITLQGTAEFLPNVLLLNDIEHPVFVVGRALYSKPITLWNNKTGKVASFVTSFTFDVQDLKKTVPGHGLVFFLAPSGSEIPFSSDGGNLGVVDGKNAFNRFVGVEFDNFVNSWDPKYSHVGINVNSLISTKTVKWNRVSGELVKVSIVYDSVSTTLTVIVTYKNGQISILSQLVDLKAVLPDTVNIGFSASTTLVSPRQLHNIHSWSFTSTFET
# Columns and labels:
# Experiment in all cases: glycan array binding signal (z-score within array); higher = stronger binding
# Conditions in all cases: glycan notation: IUPAC condensed, linker removed
# [1] = target: Neu5Ac(a2-8)Neu5Ac
# How it was run: (§1)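 Negative Z-scores can be read as non-binding. The Z-score is calculated within each array and then averaged across arrays of one protein sequence at different concentrations or buffers and across linkers. Arrays, 3228 in all, were curated from the Consortium for Functional Glycomics database and kept only where the protein sequence was available.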
# [2] = target: Neu5Ac(a2-8)Neu5Ac(a2-3)Gal(b1-3)GalNAc(b1-4)[Neu5Ac(a2-3)]Gal(b1-4)Glc
# How it was run: as §1
# [3] = target: Neu5Ac(a2-8)Neu5Ac(a2-3)Gal(b1-3)GalNAc(b1-4)[Neu5Ac(a2-8)Neu5Ac(a2-3)]Gal(b1-4)Glc
# How it was run: as §1
# [4] = target: Neu5Ac(a2-8)Neu5Ac(a2-3)Gal(b1-4)Glc
# How it was run: as §1
# [5] = target: Neu5Ac(a2-8)Neu5Ac(a2-3)Gal(b1-4)GlcNAc
# How it was run: as §1
# [6] = target: Neu5Ac(a2-8)Neu5Ac(a2-3)[Gal(b1-3)GalNAc(b1-4)]Gal(b1-4)Glc
# How it was run: as §1
# [7] = target: Neu5Ac(a2-8)Neu5Ac(a2-3)[GalNAc(b1-4)]Gal(b1-4)Glc
# How it was run: as §1
# [8] = target: Neu5Ac(a2-8)Neu5Ac(a2-8)Neu5Ac
# How it was run: as §1
# [9] = target: Neu5Ac(a2-8)Neu5Ac(a2-8)Neu5Ac(a2-3)Gal(b1-4)Glc
# How it was run: as §1
# [10] = target: Neu5Ac(a2-8)Neu5Ac(a2-8)Neu5Ac(a2-3)[Gal(b1-3)GalNAc(b1-4)]Gal(b1-4)Glc
# How it was run: as §1
# [11] = target: Neu5Ac(a2-8)Neu5Ac(a2-8)Neu5Ac(a2-3)[GalNAc(b1-4)]Gal(b1-4)Glc
# How it was run: as §1
# [12] = target: Neu5Ac(a2-8)Neu5Ac(a2-8)Neu5Ac(a2-8)Neu5Ac(a2-3)[GalNAc(b1-4)]Gal(b1-4)Glc
# How it was run: as §1
# [13] = target: Neu5Ac(a2-8)Neu5Gc(a2-3)Gal(b1-4)GlcNAc
# How it was run: as §1
# [14] = target: Neu5Ac(b2-6)Gal(b1-4)GlcNAc
# How it was run: as §1
# [15] = target: Neu5Ac(b2-6)GalNAc
# How it was run: as §1
# [16] = target: Neu5Ac9Ac(a2-3)Gal(b1-3)GlcNAc
# How it was run: as §1
# [17] = target: Neu5Ac9Ac(a2-3)Gal(b1-4)GlcNAc
# How it was run: as §1
# [18] = target: Neu5Ac9Ac(a2-6)Gal(b1-4)GlcNAc
# How it was run: as §1
# [19] = target: Neu5Gc(a2-3)Gal(b1-3)GlcNAc
# How it was run: as §1
# [20] = target: Neu5Gc(a2-3)Gal(b1-3)[Fuc(a1-4)]GlcNAc
# How it was run: as §1
# [21] = target: Neu5Gc(a2-3)Gal(b1-4)Glc
# How it was run: as §1
# [22] = target: Neu5Gc(a2-3)Gal(b1-4)GlcNAc
# How it was run: as §1
# [23] = target: Neu5Gc(a2-3)Gal(b1-4)GlcNAc(b1-3)Gal(b1-4)GlcNAc(b1-2)Man(a1-3)[Neu5Gc(a2-3)Gal(b1-4)GlcNAc(b1-3)Gal(b1-4)GlcNAc(b1-2)Man(a1-6)]Man(b1-4)GlcNAc(b1-4)GlcNAc
# How it was run: as §1
# [24] = target: Neu5Gc(a2-3)Gal(b1-4)[Fuc(a1-3)]GlcNAc
# How it was run: as §1
# [25] = target: Neu5Gc(a2-6)Gal(b1-4)GlcNAc
# How it was run: as §1
# [26] = target: Neu5Gc(a2-6)GalNAc
# How it was run: as §1
# [27] = target: Neu5Gc(a2-8)Neu5Ac(a2-3)Gal(b1-4)GlcNAc
# How it was run: as §1
# [28] = target: Neu5Gc(a2-8)Neu5Gc(a2-3)Gal(b1-4)GlcNAc
# How it was run: as §1
# [29] = target: Neu5Gc(a2-8)Neu5Gc(a2-3)Gal(b1-4)GlcNAc(b1-3)Gal(b1-4)GlcNAc
# How it was run: as §1
# [30] = target: Neu5Gc(a2-8)Neu5Gc(a2-6)Gal(b1-4)GlcNAc
# How it was run: as §1
# [31] = target: Neu5Gc(b2-6)Gal(b1-4)GlcNAc
# How it was run: as §1
binder,measurement,setting,value
B1,glycan array binding signal (z-score),[1],-0.389
same,glycan array binding signal (z-score),[2],-0.668
same,glycan array binding signal (z-score),[3],-0.364
same,glycan array binding signal (z-score),[4],-0.501
same,glycan array binding signal (z-score),[5],-0.647
same,glycan array binding signal (z-score),[6],0.008
same,glycan array binding signal (z-score),[7],0.032
same,glycan array binding signal (z-score),[8],-0.326
same,glycan array binding signal (z-score),[9],-0.579
same,glycan array binding signal (z-score),[10],-0.101
same,glycan array binding signal (z-score),[11],0.349
same,glycan array binding signal (z-score),[12],-0.385
same,glycan array binding signal (z-score),[13],-0.706
same,glycan array binding signal (z-score),[14],-0.458
same,glycan array binding signal (z-score),[15],-0.624
same,glycan array binding signal (z-score),[16],-0.445
same,glycan array binding signal (z-score),[17],-0.168
same,glycan array binding signal (z-score),[18],-0.617
same,glycan array binding signal (z-score),[19],-0.621
same,glycan array binding signal (z-score),[20],-0.613
same,glycan array binding signal (z-score),[21],-0.318
same,glycan array binding signal (z-score),[22],-0.402
same,glycan array binding signal (z-score),[23],-0.103
same,glycan array binding signal (z-score),[24],-0.398
same,glycan array binding signal (z-score),[25],-0.31
same,glycan array binding signal (z-score),[26],0.06
same,glycan array binding signal (z-score),[27],-0.396
same,glycan array binding signal (z-score),[28],-0.626
same,glycan array binding signal (z-score),[29],-0.35
same,glycan array binding signal (z-score),[30],-0.362
same,glycan array binding signal (z-score),[31],-0.382
